PMC6919601, “Identification of Plasmodium dipeptidyl aminopeptidase allosteric inhibitors by high throughput screening” (PLoS ONE, 2019)
In all, about 110,000 compounds went through this assay and about 230 (0.21%) showed an effect of 50% or more. The list shows a part of the results.

target: DPAP1 (Plasmodium falciparum, UniProt Q8IIJ9); assay: primary screen, percent inhibition; read by cleavage of a fluorogenic dipeptide substrate; higher = more effect of the substance; set-up: species or system P. falciparum D10 trophozoite lysates; single well
Sequence (Q8IIJ9 whole entry, looked up): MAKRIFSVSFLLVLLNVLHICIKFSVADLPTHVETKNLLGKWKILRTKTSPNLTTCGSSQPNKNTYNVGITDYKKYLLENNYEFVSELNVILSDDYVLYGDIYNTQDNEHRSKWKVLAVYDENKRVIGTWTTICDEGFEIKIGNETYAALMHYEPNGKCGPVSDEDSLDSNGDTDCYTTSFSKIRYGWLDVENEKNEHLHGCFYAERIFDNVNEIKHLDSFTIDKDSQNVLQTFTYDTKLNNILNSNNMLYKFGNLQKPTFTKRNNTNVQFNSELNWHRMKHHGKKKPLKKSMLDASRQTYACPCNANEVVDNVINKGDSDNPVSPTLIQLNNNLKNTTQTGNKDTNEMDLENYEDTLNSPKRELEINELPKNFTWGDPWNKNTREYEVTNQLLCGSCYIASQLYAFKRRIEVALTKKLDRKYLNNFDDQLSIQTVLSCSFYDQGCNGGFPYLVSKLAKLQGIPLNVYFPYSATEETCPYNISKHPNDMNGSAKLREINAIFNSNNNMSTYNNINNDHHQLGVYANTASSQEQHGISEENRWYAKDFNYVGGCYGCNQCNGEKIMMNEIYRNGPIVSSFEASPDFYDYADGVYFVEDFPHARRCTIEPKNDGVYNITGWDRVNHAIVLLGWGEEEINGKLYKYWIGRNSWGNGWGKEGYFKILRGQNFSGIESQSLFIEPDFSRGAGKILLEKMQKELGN
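Also: 30 min substrate incubation versus DMSO and 10 µM JCP410 controls.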

Row | SMILES | % Inhibition @ 10 uM [%]
1 | COC(=O)c1c(NC(=O)COc2cc(Cl)ccc2Cl)sc2c1CCCC2 | 4.35
2 | Cc1ccc(-c2cc(C(=O)NCc3cccnc3)c3ccccc3n2)s1 | 2.65
3 | CCN(CC)S(=O)(=O)c1ccc(NC(=O)COc2ccc(Br)cc2Cl)cc1 | -3.45
4 | CSc1nc(C)nc(-c2ccccc2O)n1 | -6.65
5 | Cc1ccc(/C=C(\C#N)c2nc(-c3ccc(Cl)c(Cl)c3)cs2)cc1 | -0.771
6 | Cc1c(C)n(Cc2ccc(Cl)cc2)c2ccc(C(=O)NCCCN3CCN(C)CC3)cc12 | 0.747
7 | Cc1cccc(NS(=O)(=O)c2ccc(NS(=O)(=O)c3ccc4c(c3)OCCO4)cc2)c1 | -0.99
8 | CC1(C)CC(=O)C2=C(C1)N(c1c(F)cccc1F)C(N)=C(C#N)C2c1ccsc1 (centres unmarked) | 3.46
9 | Cc1cccc(C)c1OCC(=O)Nc1sc2c(c1C(=O)NCC1CCCO1)CCCC2 (centres unmarked) | -5.35
10 | CC(C)C[C@H](NC(=O)OCc1ccc(Cl)cc1)C(=O)NCC#N | -4.72
11 | CCCc1cc(-c2[nH]ncc2-c2ccc3c(c2)OCCCO3)c(O)cc1O | 11.3
12 | O=C(Nc1cc2ccc(O)cc2oc1=O)c1ccc(F)cc1 | 0.032
13 | Cc1ccc(N2C(=O)CSC2c2ccccc2)cc1 (centres unmarked) | 0.467
14 | COc1cc(/C=C/c2n[nH]c(-c3ccccc3O)n2)cc(OC)c1OC | -1.11
15 | O=C(COc1ccccc1)N1c2ccccc2Sc2ccccc21 | 1.41
16 | CCOc1ccc(N(CC(=O)NC2CC3CCC2C3)S(=O)(=O)c2ccc(Cl)cc2)cc1 (centres unmarked) | 4.83
17 | CCC1=C(c2ccc(C)cc2)S(=O)(=O)N=C1NCC(=O)NC1CCN(Cc2ccccc2)CC1 | 3.82
18 | Cc1cc(C)c2c(n1)SCC(=O)N2CC(=O)NC1CCN(Cc2ccccc2)CC1 | 4.02
19 | CCc1nc(C)ccc1OCC(N)=O | -5.32
20 | CCOP(=O)(OCC)/C(=C(\NC(=O)c1ccccc1)C(=O)Nc1ccc(Cl)cn1)c1ccccc1 | -5.38
21 | Cc1cc(C)c2c(-n3cccc3)nn(CC(=O)NCCc3ccc(Cl)cc3)c2n1 | 7.81
22 | Cc1nc2c(-c3ccccc3)c(C)nn2c(C)c1CC(=O)NC(C)(C)C | -2.45
23 | COc1ccc(CCNC(=O)C2CCC(C/N=c3/c(N4CCCC4)c(O)c3=O)CC2)cc1OC (centres unmarked) | -0.447
24 | Cc1ccc(NC(=O)CCN2C(=O)c3ccccc3C2=O)c(C)c1 | -6.02
25 | O=C(NCCC1=CCCCC1)c1cc(-c2ccc(Br)cc2)n[nH]1 | 1.76
26 | CN1C(=O)/C(=C\c2cn(C)c3ccccc23)S/C1=N\c1ccccc1 | -1.84
